Source: PubChem BioAssay AID686970 (National Center for Advancing Translational Sciences (NCATS), 2013)
About 6,000 (1.7%) of roughly 360,000 compounds were called active. The inconclusive results got no clear call from the source; some entries with a clear call stand among them for comparison. The call rests on the fitted dose curve; in most records, active means well fitted cell-killing curve with a large enough effect; inconclusive means small, poorly fitted or top-dose-only effect, or effect the other way; inactive means flat fitted curve, though single readings scatter. No potency is given beside an inconclusive call; the fits are too rough.

test: qHTS for induction of synthetic lethality in tumor cells producing 2HG: qHTS for the HT-1080-NT fibrosarcoma cell line; details: HT-1080-NT fibrosarcoma viability, CellTiter-Glo ATP luminescence, 48 h; activity, negative = less viability: at 46.1 µM (top of the series) unless noted;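 further: NT is the 2HG producing partner of a matched IDH1 knockdown line; nearly all actives have a fitted effect of over 55% in size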;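 on activity, negative = less viability: 0% = DMSO-treated cells and -100% = media-only wells without cells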
Procedure, shortened: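 A 48-hour cytotoxicity screen used HT-1080-NT cells plated 2 hours before compound delivery. ATP-based CellTiter-Glo luminescence measured viability, normalized to DMSO and no-cell controls.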
Potency means the concentration at half of the fitted maximal effect; tags describe the fitted curve by direction and shape.

Structure (SMILES)	Potency	activity, negative = less viability
CC(C)n1c(-c2ccco2)csc1=Nc1cccnc1	inconclusive [cytotoxic, single point]	–
CC(C)C(NC(=O)c1ccccc1NC(=O)c1ccccc1)C(=O)NNC(=O)c1ccncc1 (configuration not stated)	inconclusive [rising, single point]	–
CCOC(=O)c1cccc(NC(=O)CN2CCN(c3ccc(OC)cc3)CC2)c1	–	inactive: 2.32%
Cc1ccc(C(=O)N(CCCN(C)C)c2nc3ccc(Cl)cc3s2)cc1C	active: 23.1 µM	–
O=C(c1ccc(CS(=O)c2ccccc2Cl)o1)N1CCN(c2ccccn2)CC1 (configuration not stated)	inconclusive [cytotoxic, single point]	–
O=C(NC1CCCCC1)C(c1ccc2ncccc2c1)N(Cc1ccc2c(c1)OCO2)C(=O)c1cccs1 (configuration not stated)	inconclusive [cytotoxic, single point]	–
CCOC(=O)c1c(CSc2nc(C)cc(C)c2C#N)n(C)c2cc(Br)c(OC(C)=O)cc12	inconclusive [rising, single point]	–
COc1ccc(NC(=O)COC(=O)CCCOc2ccc(Cl)cc2Cl)cc1Cl	–	inconclusive: 30.4%
CCCn1c(SCC(=O)Nc2cccc(S(=O)(=O)N(C)C)c2)nc2ccccc2c1=O	inconclusive [cytotoxic, single point]	–
CC(C)(C)c1ccc(CC(=O)N2CCC2(C)C(=O)NCc2cccc3ccccc23)cc1 (configuration not stated)	inconclusive [cytotoxic, single point]	–
COc1cc2c3nnc(-c4ccc(F)cc4)c-3cn(Cc3ccc(C)cc3)c2cc1OC	–	inactive: -1.29%
CCOC(=O)[C@@H]1[C@H]2COc3ccccc3[C@H]2N2C(=O)N(c3cccc(C)c3)C(=O)[C@]12C	–	inactive: 18.9%
CC(C)(C)C(c1nc2ccccc2[nH]1)n1c(-c2ccsc2)nc2ccccc21 (configuration not stated)	inconclusive [cytotoxic, single point]	–
COc1ccc(CCNC(=O)CSc2ccccc2)cc1OC	–	inactive: 5.78%
O=C(CSc1nnnn1-c1ccc2c(c1)OCCO2)N1CCc2ccccc21	inconclusive [cytotoxic, single point]	–
C=C1C(=O)O[C@@]23[C@H]1CC[C@@H](C)[C@@H]2CC[C@@]1(C)O[C@@H]31	inconclusive [cytotoxic, single point]	–
Cc1ccccc1NC(=S)NCc1ccc2c(c1)cc(C)n2C	active: 14.6 µM	–
Cc1ccc(C(=O)N/C(=C/c2ccc(-c3ccc([N+](=O)[O-])cc3)o2)C(=O)NCCCN(C)C)cc1	active: 23.1 µM	–
Cc1c(/C=N/n2cnnc2)c2ccccc2n1CCOc1ccccc1	inconclusive [cytotoxic, partial curve]	–
O=C(Nc1ccc(Cl)cc1C(F)(F)F)C(Sc1nnc(-c2cccs2)o1)c1ccccc1 (configuration not stated)	inconclusive [cytotoxic, partial curve]	–
CC1(C)CC2CC(C)(CN2S(=O)(=O)c2ccc(C(=O)Nc3ccc(S(=O)(=O)N4CCOCC4)cc3)cc2)C1 (configuration not stated)	inconclusive [cytotoxic, full curve]	–
Cc1csc(-c2nc3ccccc3n2C(C(=O)NC(C)(C)C)c2cc3ccccc3o2)c1 (configuration not stated)	inconclusive [cytotoxic, single point]	–
COc1ccc(NC(=O)CSc2n[nH]c(-c3ccco3)n2)cc1	inconclusive [cytotoxic, partial curve, poor fit]	–

Structure (SMILES)	Potency	activity, negative = less viability
Cc1ccc(C(=O)Nc2ccc(S(=O)(=O)NCc3ccco3)cc2)cc1	inconclusive [cytotoxic, single point]	–
COC(=O)c1c(NC(=O)C2(C)Cc3ccccc3C(=O)O2)sc2c1CCCC2 (configuration not stated)	inconclusive [cytotoxic, partial curve]	–
O=C(Nc1cccc(S(=O)(=O)N2CCCC2)c1)c1ccc(Cl)nc1	inconclusive [cytotoxic, full curve]	–
CCOc1ccc(C(=O)NC(=S)Nc2cccc(S(=O)(=O)NC3=NCCC3)c2)cc1	active: 0.461 µM	–
O=C1C=CC(=O)N1c1cccc(-c2ccccc2)c1	active: 20.6 µM	–
CCCc1nc2ccccc2c(C(=O)OCC(=O)Nc2cccc(S(=O)(=O)N3CCOCC3)c2)c1CC	inconclusive [cytotoxic, partial curve, poor fit]	–
Cc1ccc(C(=O)N2CCN3C(=O)c4ccccc4C23c2ccc(Cl)cc2)cc1 (configuration not stated)	inconclusive [cytotoxic, single point]	–
COc1ccccc1C(=O)Nc1ccnn1C1CCN(C/C=C/c2ccc(F)cc2)CC1	inconclusive [cytotoxic, partial curve]	–
CCN(CC)c1c([N+](=O)[O-])c(=O)n(C)c2ccccc12	–	inactive: 0.577%
CC(=O)Nc1cccc(-c2ccnc3c2CC(C)(C(=O)Nc2cccnc2)O3)c1 (configuration not stated)	–	inconclusive: 0.399%
CNCCN(C)c1nc(-c2cccs2)nc2ccccc12	inconclusive [cytotoxic, single point]	–
CCCn1c(SCC(=O)Nc2ccc3c(c2)OCCO3)nnc1-c1ccco1	inconclusive [rising, partial curve]	–
O=C(CN(Cc1ccccc1F)C(=O)Cn1nnc(-c2cccs2)n1)NCC1CCCO1 (configuration not stated)	–	inactive: -2.8%
O=C(/C=C/c1ccco1)NC(=S)Nc1nc(-c2ccc3ccccc3c2)cs1	inconclusive [cytotoxic, single point]	–
O=c1[nH]c2ccccc2c2oc(CCl)nc12	active: 5.8 µM	–
CCSC1=C(C#N)C(c2ccc(Cl)cc2)C2=C(CCCC2=O)N1 (configuration not stated)	inconclusive [cytotoxic, partial curve]	–
Cc1ccc(/C=N/NC(=O)c2csc3c2CCCC3)cc1	inconclusive [cytotoxic, full curve]	–
Cc1ccc(NC(=S)N(CCCN(C)C)Cc2cc3cc4c(cc3[nH]c2=O)OCO4)cc1	–	inactive: -2.28%
CC1=NN(C(=O)Cc2ccc([N+](=O)[O-])cc2)C(O)(c2cccnc2)C1 (configuration not stated)	inconclusive [cytotoxic, single point]	–
CC(=O)Nc1ccc(SCC(=O)NC(=O)c2ccc(S(=O)(=O)N(C)C)cc2)cc1	–	inactive: 10.3%
Cc1ccc(S(=O)(=O)C(NC(=O)c2ccccc2)=C(Cl)Cl)cc1	inconclusive [cytotoxic, single point]	–
CCCCOc1cc(C)nc(NCc2ccccc2)n1	inconclusive [cytotoxic, partial curve]	–
Cc1ccc2c(C(=O)N3CCN(c4ccccc4)CC3)cc(-c3cccnc3)nc2c1C	inconclusive [cytotoxic, single point]	–

Structure (SMILES)	Potency	activity, negative = less viability
COc1ccc(-c2nc(=S)n3ccsc3n2)cc1OC	inconclusive [rising, single point]	–
CNC(=O)C1C2C=CC3(O2)C1C(=O)N(C1CC1)C3C(=O)NCc1ccc(OC)cc1 (configuration not stated)	–	inactive: 13%
COc1cccc(-c2ccc(SCC(=O)c3ccccc3)nn2)c1	inconclusive [cytotoxic, single point]	–
CCOC(=O)Cc1csc(NC(=O)COc2ccccc2)n1	active: 10 µM	–
COc1cc(C(=O)N2CCCc3ccccc32)cc(OC)c1OC	inconclusive [cytotoxic, single point]	–
O=C(Nc1ccccc1)C1Cc2c(-c3ccc(Cl)cc3)ccnc2O1 (configuration not stated)	–	inactive: -16.7%
NC(=S)N=Nc1ccc(NN=C(N)N)cc1	inconclusive [cytotoxic, partial curve, poor fit]	–
CC(=O)c1ccccc1OCCCOc1cccc2cccnc12	–	inactive: -10.5%
CCOC(=O)c1cc(C(=O)Nc2cccc(C)c2)nn1C	inconclusive [cytotoxic, single point]	–
O=C(COc1ccc(C(=O)c2ccccc2)cc1)NCc1ccc(F)cc1	active: 2.06 µM	–
COc1ccc(CN(C)S(=O)(=O)c2nnc(NC(=O)c3cccc(F)c3)s2)cc1	inconclusive [cytotoxic, single point]	–
N#Cc1ccc(OCC(O)CN2CCN(c3ncc(C(F)(F)F)cc3Cl)CC2)cc1 (configuration not stated)	inconclusive [cytotoxic, single point]	–
CC1Cc2ccccc2N1C(=O)CSc1nnc2sc3ccccc3n12 (configuration not stated)	inconclusive [rising, full curve, poor fit]	–
O=C(Nc1nc2ccccc2s1)c1ccc([N+](=O)[O-])o1	inconclusive [cytotoxic, single point]	–
COc1ccc(Cc2c(C(C)(C)C)nc3ccc(C)cn23)c(C)c1	inconclusive [cytotoxic, single point]	–
Cc1cc(C)n(Cc2ccc(C(=O)N/N=C/c3ccc(-c4ccc([N+](=O)[O-])cc4)o3)o2)n1	inconclusive [cytotoxic, full curve, poor fit]	–
COc1ccc(-c2cn[nH]c2-c2ccc(OC)cc2O)cc1	inconclusive [cytotoxic, partial curve, poor fit]	–
CC(C)c1cc(C(C)C)c(S(=O)(=O)N2CCNCC2)c(C(C)C)c1	inconclusive [cytotoxic, single point]	–
N#CC(C(=O)C1CCCCC1)c1nc2ccccc2[nH]1 (configuration not stated)	inconclusive [cytotoxic, single point]	–
CC1=C(CC/C(C)=N/NC(N)=S)C(C)(C)CCC1	active: 6.31 µM	–
Cc1ccccc1NCC(=O)N/N=C/C(Br)=C/c1ccccc1	inconclusive [cytotoxic, single point]	–
